# Measurements taken from the supplement of paper PMC3334620.
# In all, about 33,000 sequences were measured (“E-score (-0.5 to 0.5)”: median about -0.04, highest 2% from about 0.36 on). This is one part of the list.
# Molecular target: T1, Hmlalpha2 (UniProt P0CY09)
# T1 sequence: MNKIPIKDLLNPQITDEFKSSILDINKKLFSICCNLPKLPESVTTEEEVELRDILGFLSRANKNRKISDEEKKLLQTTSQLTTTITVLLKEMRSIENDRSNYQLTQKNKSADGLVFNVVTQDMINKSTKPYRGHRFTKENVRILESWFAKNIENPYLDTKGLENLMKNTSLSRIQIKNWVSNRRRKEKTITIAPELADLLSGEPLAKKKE
# Experiment: PBM E-score (8-mer binding enrichment) (E-score (-0.5 to 0.5)); higher = stronger / more preferred TF binding; most listed sequences are background and not binding sites
# Details: protein concentration: 200 nM; construct: GST-full length
# Description: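 Universal 'all 10-mer' protein binding microarrays (Agilent AMADID 015681) probed with GST-tagged S. cerevisiae TFs (full-length or DBD) made by in vitro transcription/translation (PURExpress), about 100-200 nM. Bound TF was detected with fluorescent anti-GST. Each ungapped 8-mer (which stands for itself and its reverse complement) is scored by the PBM enrichment score (E-score), a modified Wilcoxon-Mann-Whitney statistic from -0.5 to +0.5, computed with the Universal PBM Analysis Suite. Scale: above 0.35 generally sequence-specific binding.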
row,Sequence,PBM E-score
1,CGTCCTAC,-0.206
2,TCCTTACA,0.236
3,CACATTGG,-0.105
4,CGGCTGAA,-0.0725
5,ATCAATCA,0.147
6,CCGTGTGC,-0.134
7,TAGGTTGA,0.0343
8,ATCTGGAG,-0.0319
9,CCTTCGGC,-0.267
10,GCAAGACC,-0.163
11,CGCAGCCC,-0.186
12,GGCCGACA,-0.247
13,GGACAGCC,-0.369
14,CGGCTTCC,-0.213
15,AGCGGCCG,-0.00781
16,GCGCTAGC,-0.035
17,AACCCTCA,-0.157
18,ACTGAACT,-0.101
19,AGGCTGCA,0.0206
20,GACCTATA,0.118
21,GGCCACCC,-0.351
22,CCGGCTAG,-0.321
23,CAGGTTGC,0.0306
24,GTGTATTA,0.421
25,GGGAGAAA,-0.209

row,Sequence,PBM E-score
1,AGTGCACT,-0.142
2,GCTTGCAC,-0.133
3,CCTATCAC,-0.138
4,AAACCGGC,-0.0487
5,ATTAGGCA,0.0917
6,GGCGCCCC,-0.218
7,CGAGACGA,-0.156
8,AGGAATAT,-0.169
9,TGCTGAAA,0.0411
10,AGCGCATC,-0.126
11,CATCGCGG,-0.225
12,ATGCCATG,0.138
13,TACAGGTA,0.135
14,ACGCTCCT,0.0508
15,CTGTCTCC,-0.275
16,AAATCACT,0.00442
17,CAGGGCGG,-0.209
18,AACAACGA,0.157
19,AGGTCACA,-0.088
20,GCGGTCAC,-0.314
21,AATGACAA,0.209
22,TAGGCGAA,-0.17
23,AGGACCTA,-0.237
24,CGCAGGCG,-0.137
25,ACGAGACC,-0.0278

row,Sequence,PBM E-score
1,CCTCGTAA,0.317
2,CCATGTTA,0.458
3,AGCGATAG,-0.277
4,AACTTCTA,0.0783
5,ACAGAGAG,-0.0914
6,AGCGTCGG,-0.0159
7,TAATACCA,0.155
8,CCAGTTTA,0.147
9,AAGAGGGA,-0.246
10,ATAGCAAC,-0.0001
11,TCGCCGCA,-0.165
12,CGACGCAA,-0.163
13,AGGTGTGA,-0.154
14,AGAGACGG,-0.124
15,AGTCTGTC,-0.0433
16,ACTAGTGG,-0.198
17,TACTTATA,0.0699
18,AAAGATCT,0.00927
19,TAATTTGA,-0.0623
20,CATGTCGA,0.386
21,AAACCTTT,-0.111
22,CGCATCAC,-0.0429
23,ATACGTTG,0.157
24,TCCGGCCA,-0.407
25,ATCTCGCC,-0.262

row,Sequence,PBM E-score
1,TATAGCCA,0.0852
2,CGGCAGTC,-0.161
3,CGGCGGCA,-0.295
4,CCAGTTCC,-0.263
5,AACCAATT,0.0231
6,AAGCTAGT,0.0295
7,TCAGTCCA,-0.168
8,CTTTGAAA,0.0406
9,GCTGTCCA,-0.0572
10,ATCAATAA,0.19
11,CGCTGCGC,-0.199
12,AAGTCGAA,-0.059
13,CGTCAAAC,0.0643
14,AACCGCTA,-0.169
15,GAGCATGA,-0.0304
16,GAAGTATA,-0.0316
17,CCTGCACC,-0.197
18,CACGGTAC,0.0827
19,CATTATCC,0.0855
20,AAAGATGG,-0.0792
21,GCGTTCTA,0.105
22,ATCGTTTC,-0.0304
23,AAAACTAG,0.133
24,GCAAAGCC,-0.325
25,CCAGAACA,0.0324

row,Sequence,PBM E-score
1,CGGGCGTA,-0.202
2,CGGTCTAA,0.00536
3,ACTAAGTG,0.0576
4,TCTTGACA,0.194
5,GAGGAGCA,-0.269
6,GTTCTGAA,0.213
7,CGGAGCGC,-0.229
8,CAGCACCA,-0.268
9,TAGGCTCA,-0.235
10,CGATGTTC,-0.0958
11,GGTCCGGA,-0.0474
12,TAATAATA,0.263
13,CTATACAA,0.183
14,GAACAAGA,0.139
15,GCGGCGCA,-0.203
16,ATTGGTGC,-0.156
17,CACAACTG,0.0134
18,CTTGGAAC,-0.0884
19,GGCAGCAC,-0.223
20,CAGATCCG,-0.074
21,AAATAGCC,-0.184
22,CCCCTTCA,-0.233
23,ACGTTAGT,0.166
24,ATCCAGAT,-0.217
25,ACGGATGA,-0.00893

row,Sequence,PBM E-score
1,TCAGCACA,0.136
2,GGCTAGGA,-0.206
3,GTTCGGAA,-0.0249
4,CCGATCGG,-0.154
5,AATCCGCC,-0.289
6,AAATGCTT,-0.0472
7,CTCCATGC,-0.189
8,GAGTCGGC,-0.289
9,AGGGTGTG,-0.0487
10,CTCTTTCA,-0.24
11,CGTCAGAA,-0.0845
12,ACCTTCGT,-0.207
13,AGTGGCGC,-0.295
14,GCGTACCA,0.073
15,GGCAGACC,-0.346
16,ACTAGCCT,-0.0684
17,ACACCCCT,-0.0328
18,ACCAGGAA,-0.148
19,AACCTGGT,-0.0464
20,ACCAACAG,-0.118
21,ACCCCGCC,-0.229
22,CCCGCCCA,-0.232
23,CAATCTGA,-0.03
24,CTTTGTCC,-0.0862
25,CAGCTCAC,-0.0549

row,Sequence,PBM E-score
1,AACGACGG,0.0595
2,CGCGAGTA,0.108
3,CCACATTA,0.0818
4,ACGGAGGA,-0.127
5,CCTCGGGC,-0.178
6,CATTGTGA,-0.0118
7,CTCCCCCA,-0.315
8,CCAGGGGC,-0.235
9,CTCACCTC,-0.0732
10,AGGCGCTC,-0.213
11,GATGACAA,0.207
12,AAACTGTG,0.131
13,GGCCTCAC,-0.204
14,ATATGCGA,0.131
15,ATCTGCTG,-0.0593
16,TAACTCAA,0.221
17,CCTTGCAG,-0.243
18,GCGAACAC,-0.166
19,ATAAGAAT,0.116
20,ATACGACA,0.241
21,ACCAGTAA,0.144
22,ACATTACA,0.449
23,AGCAACGC,0.197
24,AAAGGCCA,-0.188
25,CTGGAAGC,-0.254

row,Sequence,PBM E-score
1,AATGCACC,0.00311
2,CATAGAGC,-0.23
3,AAAGCTAT,0.101
4,AATTAACC,0.104
5,TGCTTGAA,0.128
6,ACCCGGTA,0.111
7,GAACGCCA,-0.0322
8,CCTCTTGC,-0.172
9,GAGGTTCC,-0.141
10,CTGGGTTA,0.184
11,CAAGTGAC,-0.0431
12,CTGAGGTC,-0.249
13,GATCCATA,-0.113
14,ACTGACTC,-0.204
15,CACTCCAG,-0.148
16,ACAGCAGC,0.0712
17,CAGCTGAG,-0.143
18,CGAGTCAG,-0.16
19,CTATACCA,0.0995
20,GGACGTAC,-0.0243
21,AGTAGTAT,0.11
22,AACTTGAT,0.187
23,GAAGTAAA,0.131
24,CTAGGCGC,-0.158
25,TCATGGGA,-0.091

row,Sequence,PBM E-score
1,AGTGAGAC,-0.237
2,CGCCAATA,0.0325
3,ACTTACCT,-0.0906
4,CGACGGCG,-0.198
5,AATGCCTA,-0.0868
6,AACGACAT,0.312
7,AAAAAGTC,-0.0155
8,GTCCAAAA,0.0377
9,AATCGTGC,0.151
10,CAACGAGC,-0.0885
11,AAGGCTGC,-0.194
12,CTTTCAGA,-0.0843
13,TGCAGACA,0.0705
14,TGAATCCA,-0.139
15,CTGAACCA,0.0213
16,GACCATGA,-0.132
17,ACCAGACA,0.0989
18,CTAGTCGA,-0.0801
19,AAGACCAA,-0.0417
